# Read counts are not given, so values of variants with three or more changes are uncertain.
# B1: LINE1-mini (parent)
# chain: GGCAGAGCUCAACACAGCGUGGCAAAGUGGCUGUGGCUAGACUGCC
# Variants of: B1
# Assay: self-cleavage, relative activity (ratio to wild type); higher = more cleavage; in vitro, sequencing; the parent is a self-cleaving ribozyme
row,Variant,self-cleavage
1,GACAGAGCUCAACAUAUCGUGGCAAAGUGGCUGUGGCUAGACUGCC [G2A C15U G17U],0.29
2,GACAGAGCUCAACAUAGCGUGGCAAAUUGGCUGUGGCUAGACUGCC [G2A C15U G27U],0.51
3,GACAGAGCUCAACAUAGCGUGGCAAAGUGGCUUUUGCUAGGCUGCC [G2A C15U G33U G35U A41G],0.32
4,GACAGAGCUCAACACAGAGUGGCAAGGUGACUGUGGCUACACUGCC [G2A C18A A26G G30A G40C],0.13
5,GACAGAGCUCAACACAGAGUGGGAAAGUGGCUGUGGCUAGUCUGCC [G2A C18A C23G A41U],0.12
6,GACAGAGCUCAACACAGAGUGGCAAACUGGCUGUGGCUAGACUCCU [G2A C18A G27C G44C C46U],0.03
7,GACAGAGCUCAACACAGAGGGGCAAAGUGGCUGUGGCUAGACUGCC [G2A C18A U20G],0.07
8,GACAGAGCUCAACACAGAGUGGCAAAGUGGCUGAGGCUAGACUGCC [G2A C18A U34A],0.03
9,GACAGAGCUCAACACAGGGUGGGUAAGUGGCUGUGGCUAGACUGCC [G2A C18G C23G A24U],0.04
10,GACAGAGCUCAACACAGGGUGGCAAAGCGGCUGCGGCUAGACUGCC [G2A C18G U28C U34C],0.59
11,GACAGAGCUCAACACAGUGUGGCAGAGUGGCUGUGGCUAGACUGCC [G2A C18U A25G],0.35
12,GACAGAGCUCAACACAGUGUGGCAAAGUGGCUGUGGGUAGACUCCC [G2A C18U C37G G44C],0.02
13,GACAGAGCUCAACACAGUUUGGCUAAGUGGCUGUGGCUAGACUGCC [G2A C18U G19U A24U],0.09
14,GACAGAGCUCAACACAGUGUGGCAAAUUGGCUGUUGCUAGACUGCC [G2A C18U G27U G35U],0.1
15,GACAGAGCUCAACACAGUGUGGCAAAGUGGCUGGGGCUAGACUGCC [G2A C18U U34G],0.14
16,GACAGAGCUCAACACAGUGUGGCAAAGUGGCUGUGGCGAGACUGCC [G2A C18U U38G],0.14
17,GACAGAGCUCAACACAGCGUGGAAAAGUGGGUGUGGCUAGACUGCC [G2A C23A C31G],0.12
18,GACAGAGCUCAACACAGCGUGGAAAAGUGGCUAUGGCUAGAUUGCC [G2A C23A G33A C42U],0.18
19,GACAGAGCUCAACACAGCGUGGGUAAGUGGCUGUGACUAGACUGCC [G2A C23G A24U G36A],0.89

row,Variant,self-cleavage
1,GACAGAGCUCAACACAGCGUGGGACAAUGGCUGUGGCUAGACUGCG [G2A C23G A25C G27A C46G],0.14
2,GACAGAGCUCAACACAGCGUGGGAAAGUGGCUGUGGCUAGGCUGCC [G2A C23G A41G],0.33
3,GACAGAGCUCAACACAGCGUGGGAAACUGGCUGUGGCUAGACUGCC [G2A C23G G27C],1.93
4,GACAGAGCUCAACACAGCGUGGGAAAGUGGCUGUGCCUAGACUGCC [G2A C23G G36C],0.06
5,GACAGAGCUCAACACAGCGUGGGAAAGUGGCUGUGUCUAGACUGCC [G2A C23G G36U],0.04
6,GACAGAGCUCAACACAGCGUGGUAAAGUGGCUACGGCUAGACUGCC [G2A C23U G33A U34C],0.04
7,GACAGAGCUCAACACAGCGUGGCAAAGUGGAUGUAGCUACACUGCC [G2A C31A G35A G40C],0.05
8,GACAGAGCUCAACACAGCGUGGCAAAGUGGAUGAGGCUAGACUGCC [G2A C31A U34A],0.03
9,GACAGAGCUCAACACAGCGUGGCAAAGUGGGUGUGCCUACACUGCC [G2A C31G G36C G40C],0.01
10,GACAGAGCUCAACACAGCGUGGCAAAGUGGCUGUGGAUAGACUGUC [G2A C37A C45U],0.09
11,GACAGAGCUCAACACAGCGUGGCAAAGUGGCUGUGGAGAGACUGCC [G2A C37A U38G],0.12
12,GACAGAGCUCAACACAGCGUGGCAAAGUGGCUGUGGUUAGCCUGCC [G2A C37U A41C],0.08
13,GACAGAGCUCAACACAGCGUGGCAAAGUGGCUGUGGUUAGACUGGC [G2A C37U C45G],0.09
14,GACAGAGCUCAACACAGCGUGGCAAAGUGGCUGUGGCUAGAACGCC [G2A C42A U43C],0.08
15,GACAGAGCUCAACACAGCGUGGCAAAGUGGCUGUGGCUAGAGGGCC [G2A C42G U43G],0.1
16,GACAGAGCUCAACACAGCGUGGCAAAGUGGCUGUGGCUAGAUUACC [G2A C42U G44A],0.39
17,GACAAAGCUCCACACAGCGUGGCAAAGUCGAUGUGGAUAGAAUACC [G2A G5A A11C G29C C31A C37A C42A G44A],0.01
18,GACAAAGCUCAACACAGCGUGGCGAAGUGGCUGUUGCUAGACUGCC [G2A G5A A24G G35U],0.21
19,GACAAAGCUCAACACAGCGUGGCAAAGUGGCUGUGGCUAGUCUGCC [G2A G5A A41U],0.2

row,Variant,self-cleavage
1,GACAAAGCUCAACACAGCGUGGCAAAGUGGCUGUGGCUAGUCUACC [G2A G5A A41U G44A],0.11
2,GACAAAGCUAAACACAGCGUGGCAAAGUGGCUGUGGCUAGACUGCC [G2A G5A C10A],0.11
3,GACAAAGCUAAACACAGCGUCGCAAAGUGGCUGUGGCUAGACUGCC [G2A G5A C10A G21C],0.04
4,GACAAAGCUCAACACAGAGUUGCAAAGGGGCUGUGGCUAGACUGCC [G2A G5A C18A G21U U28G],0.2
5,GACAAAUCUCAACACAGCGUGGCCAAGUGGCUGUGGCUAGACUGCC [G2A G5A G7U A24C],0.1
6,GACAAAUUUCAACACAGCGUGGCAAAGUGGCUGUGGCUAGACUGCG [G2A G5A G7U C8U C46G],2.34
7,GACAAAGCUCAACACACCGUGGGAAAGUGGCUGUGUCUAGACUGCC [G2A G5A G17C C23G G36U],0.24
8,GACAAAGCUCAACACAGCGUGGCAAAAUGGCUGUGGCUAAACUGCC [G2A G5A G27A G40A],0.44
9,GACAAAGCUCAACACAGCGUGGCAAAGUUGCUGUGGCUAGACUGCC [G2A G5A G29U],1.44
10,GACAAAGCUCAACACAGCGUGGCAAAGUGGCUAUGGGUAGACUGCC [G2A G5A G33A C37G],0.41
11,GACAAAGCUCAACACAGCGUGGCAAAGUGGCUGUGGCUACACUGCC [G2A G5A G40C],0.25
12,GACAAAGCCCAUCACAGCGUGGCAAAGUGGCUGUGGCUAGACUGCC [G2A G5A U9C A12U],0.07
13,GACACUGCUCAACACAGCGUGGCAAAGUGGCUGUGGCUAGACUGCC [G2A G5C A6U],0.21
14,GACACAGCUCAACCCAACGUGGCAAAGUGGCUGUGGCUAGACUGCC [G2A G5C A14C G17A],0.01
15,GACACAGCUCAACACGGCGUCGCAAAGUGGCUGUGGCUAGAGUGCC [G2A G5C A16G G21C C42G],0.08
16,GACACAGCUCAACACAGCGUGGCACAUUGGCUGUGGCUAGACUGCC [G2A G5C A25C G27U],0.04
17,GACACAGCUCAACACAGCGUGGCAUAGUGGCUGUGGCUAGACUACC [G2A G5C A25U G44A],0.04
18,GACACAGCUAAACACAGCGUGGCAAAGUGGCUGUGGCUAGACUGCC [G2A G5C C10A],0.02
